Assay results reported in the supplement of paper PMC11876631.
± gives the standard deviation of the averaged measurements. Laboratory Escherichia coli strains with one amino-acid change in an essential protein, pooled on minimal glucose agar with carbenicillin or gentamicin at twice the control MIC (plus kanamycin and chloramphenicol for the plasmids), 48 h. Fold change of barcode share against drug-free plates; higher = less susceptible. Active = above 20 in both replicates (the paper's putatively resistant). '<' = one read or none on drug, '>' = one read or none on a drug-free plate. Shares are relative, so most strains fall below 1 when a few take over. Listed are strains with at least 15 reads on both drug-free plates, and hits; most hits rest on fewer reference reads. Replicate rank correlation about 0.5. Edits are read from barcodes.

B1: obgE I332D (protein)
chain: MKFVDEASILVVAGDGGNGCVSFRREKYIPKGGPDGGDGGDGGDVWMEADENLNTLIDYRFEKSFRAERGQNGASRDCTGKRGKDVTIKVPVGTRVIDQGTGETMGDMTKHGQRLLVAKGGWHGLGNTRFKSSVNRTPRQKTNGTPGDKRELLLELMLLADVGMLGMPNAGKSTFIRAVSAAKPKVADYPFTTLVPSLGVVRMDNEKSFVVADIPGLIEGAAEGAGLGIRFLKHLERCRVLLHLIDIDPIDGTDPVENARIIISELEKYSQDLATKPRWLVFNKIDLLDKVEAEEKAKAIAEALGWEDKYYLISAASGLGVKDLCWDVMTFDIENPVVQAEEAKQPEKVEFMWDDYHRQQLEEIAEEDDEDWDDDWDEDDEEGVEFIYKR
B2: obgE I176D (protein)
chain: MKFVDEASILVVAGDGGNGCVSFRREKYIPKGGPDGGDGGDGGDVWMEADENLNTLIDYRFEKSFRAERGQNGASRDCTGKRGKDVTIKVPVGTRVIDQGTGETMGDMTKHGQRLLVAKGGWHGLGNTRFKSSVNRTPRQKTNGTPGDKRELLLELMLLADVGMLGMPNAGKSTFDRAVSAAKPKVADYPFTTLVPSLGVVRMDNEKSFVVADIPGLIEGAAEGAGLGIRFLKHLERCRVLLHLIDIDPIDGTDPVENARIIISELEKYSQDLATKPRWLVFNKIDLLDKVEAEEKAKAIAEALGWEDKYYLISAASGLGVKDLCWDVMTFIIENPVVQAEEAKQPEKVEFMWDDYHRQQLEEIAEEDDEDWDDDWDEDDEEGVEFIYKR
B3: obgE I176P (protein)
chain: MKFVDEASILVVAGDGGNGCVSFRREKYIPKGGPDGGDGGDGGDVWMEADENLNTLIDYRFEKSFRAERGQNGASRDCTGKRGKDVTIKVPVGTRVIDQGTGETMGDMTKHGQRLLVAKGGWHGLGNTRFKSSVNRTPRQKTNGTPGDKRELLLELMLLADVGMLGMPNAGKSTFPRAVSAAKPKVADYPFTTLVPSLGVVRMDNEKSFVVADIPGLIEGAAEGAGLGIRFLKHLERCRVLLHLIDIDPIDGTDPVENARIIISELEKYSQDLATKPRWLVFNKIDLLDKVEAEEKAKAIAEALGWEDKYYLISAASGLGVKDLCWDVMTFIIENPVVQAEEAKQPEKVEFMWDDYHRQQLEEIAEEDDEDWDDDWDEDDEEGVEFIYKR
B4: obgE I332P (protein)
chain: MKFVDEASILVVAGDGGNGCVSFRREKYIPKGGPDGGDGGDGGDVWMEADENLNTLIDYRFEKSFRAERGQNGASRDCTGKRGKDVTIKVPVGTRVIDQGTGETMGDMTKHGQRLLVAKGGWHGLGNTRFKSSVNRTPRQKTNGTPGDKRELLLELMLLADVGMLGMPNAGKSTFIRAVSAAKPKVADYPFTTLVPSLGVVRMDNEKSFVVADIPGLIEGAAEGAGLGIRFLKHLERCRVLLHLIDIDPIDGTDPVENARIIISELEKYSQDLATKPRWLVFNKIDLLDKVEAEEKAKAIAEALGWEDKYYLISAASGLGVKDLCWDVMTFPIENPVVQAEEAKQPEKVEFMWDDYHRQQLEEIAEEDDEDWDDDWDEDDEEGVEFIYKR
B5: obgE I176Q (protein)
chain: MKFVDEASILVVAGDGGNGCVSFRREKYIPKGGPDGGDGGDGGDVWMEADENLNTLIDYRFEKSFRAERGQNGASRDCTGKRGKDVTIKVPVGTRVIDQGTGETMGDMTKHGQRLLVAKGGWHGLGNTRFKSSVNRTPRQKTNGTPGDKRELLLELMLLADVGMLGMPNAGKSTFQRAVSAAKPKVADYPFTTLVPSLGVVRMDNEKSFVVADIPGLIEGAAEGAGLGIRFLKHLERCRVLLHLIDIDPIDGTDPVENARIIISELEKYSQDLATKPRWLVFNKIDLLDKVEAEEKAKAIAEALGWEDKYYLISAASGLGVKDLCWDVMTFIIENPVVQAEEAKQPEKVEFMWDDYHRQQLEEIAEEDDEDWDDDWDEDDEEGVEFIYKR
B6: obgE I176A (protein)
chain: MKFVDEASILVVAGDGGNGCVSFRREKYIPKGGPDGGDGGDGGDVWMEADENLNTLIDYRFEKSFRAERGQNGASRDCTGKRGKDVTIKVPVGTRVIDQGTGETMGDMTKHGQRLLVAKGGWHGLGNTRFKSSVNRTPRQKTNGTPGDKRELLLELMLLADVGMLGMPNAGKSTFARAVSAAKPKVADYPFTTLVPSLGVVRMDNEKSFVVADIPGLIEGAAEGAGLGIRFLKHLERCRVLLHLIDIDPIDGTDPVENARIIISELEKYSQDLATKPRWLVFNKIDLLDKVEAEEKAKAIAEALGWEDKYYLISAASGLGVKDLCWDVMTFIIENPVVQAEEAKQPEKVEFMWDDYHRQQLEEIAEEDDEDWDDDWDEDDEEGVEFIYKR

What follows are proteins tested against Escherichia coli (laboratory strain) (assay: barcode share on antibiotic plates over drug-free plates; higher = less susceptible). Conditions: antibiotic: carbenicillin; 2× MIC (3.1 µg/mL).
Protocol: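 A pool of E. coli strains, each edited to carry one amino-acid change in an essential protein, was grown for 48 h on minimal glucose agar with or without antibiotic; strain barcodes were sequenced; mean of two replicates.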

Row | Protein | fold change of barcode share
1 | B1 | 0.409 ± 0.4
2 | B2 | 0.386 ± 0.059
3 | B3 | 0.365 ± 0.064
4 | B4 | 0.3743 ± 0.0027
5 | B5 | 0.366 ± 0.15
6 | B6 | 0.365 ± 0.032

Same assay, conditions: antibiotic: gentamicin; 2× MIC (MIC 0.45 µg/mL)

Row | Protein | fold change of barcode share
7 | B1 | 0.0232 ± 0.0089
8 | B2 | 0.00614 ± 0.0036
9 | B3 | 0.00745 ± 0.005
10 | B4 | 0.0197 ± 0.019
11 | B5 | 0.00495 ± 0.004
12 | B6 | 0.00961 ± 0.012
